According to the supplement of paper PMC3334620:
The full ranking holds about 33,000 sequences; the median of “E-score (-0.5 to 0.5)” is about -0.035, and the highest 2% start at about 0.35. This is one part of the list.

What follows are sequences tested against T1, Pdr3 (UniProt P33200) (assay: PBM E-score (8-mer binding enrichment) (E-score (-0.5 to 0.5)); higher = stronger / more preferred TF binding; most listed sequences are background and not binding sites). Conditions: protein concentration: 200 nM; construct: GST-full length.
T1 sequence: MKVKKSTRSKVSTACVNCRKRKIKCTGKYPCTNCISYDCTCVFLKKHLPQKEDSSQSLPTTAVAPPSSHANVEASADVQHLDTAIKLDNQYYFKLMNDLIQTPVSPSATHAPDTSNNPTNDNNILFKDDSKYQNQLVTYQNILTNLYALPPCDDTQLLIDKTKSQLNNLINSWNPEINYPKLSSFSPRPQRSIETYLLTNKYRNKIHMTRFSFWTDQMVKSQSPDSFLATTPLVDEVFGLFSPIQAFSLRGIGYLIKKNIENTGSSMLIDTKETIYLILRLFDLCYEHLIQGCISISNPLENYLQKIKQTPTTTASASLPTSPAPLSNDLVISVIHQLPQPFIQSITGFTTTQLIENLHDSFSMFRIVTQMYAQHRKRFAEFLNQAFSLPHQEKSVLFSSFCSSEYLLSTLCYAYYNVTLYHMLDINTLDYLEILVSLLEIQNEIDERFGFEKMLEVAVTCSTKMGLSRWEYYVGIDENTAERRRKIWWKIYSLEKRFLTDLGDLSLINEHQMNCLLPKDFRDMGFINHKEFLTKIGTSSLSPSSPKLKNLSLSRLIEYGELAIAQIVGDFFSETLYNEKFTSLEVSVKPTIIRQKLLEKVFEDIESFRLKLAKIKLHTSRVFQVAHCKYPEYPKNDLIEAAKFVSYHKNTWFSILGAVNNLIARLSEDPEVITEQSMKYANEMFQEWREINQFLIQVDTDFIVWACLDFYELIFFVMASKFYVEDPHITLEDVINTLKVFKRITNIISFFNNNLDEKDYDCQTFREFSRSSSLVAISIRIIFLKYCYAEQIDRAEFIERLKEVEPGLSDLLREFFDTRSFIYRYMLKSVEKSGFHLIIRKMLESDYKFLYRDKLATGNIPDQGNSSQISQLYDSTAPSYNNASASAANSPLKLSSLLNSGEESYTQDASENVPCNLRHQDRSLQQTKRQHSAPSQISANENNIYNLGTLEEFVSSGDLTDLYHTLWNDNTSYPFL
Method in brief: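 For each ungapped eight-base word taken together with its reverse complement, the Universal PBM Analysis Suite assigned an E-score. Binding data came from GST-tagged yeast transcription factors, applied at about 100-200 nM, on universal all-10-mer Agilent arrays made double-stranded by primer extension. Fluorescent anti-GST marked bound protein, and scans were normalised with masliner.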

Sequence	PBM E-score
GCCATCCC	0.147
CTCGCGTC	0.083
CAATATAC	-0.00737
AGTTGACA	-0.022
CCGGCGTC	0.273
ACCGCATA	0.0305
ACACCGAT	-0.179
TGAGCAAA	-0.0992
AGAACGCA	-0.0199
TCGATCAA	-0.0862
CCAAGGAC	-0.202
CAAGCTGC	-0.0639
CAATAACA	-0.0386
AGTGCTAC	-0.316
AGAATTGC	0.0115
CTTCGAAG	-0.0703
GATCGTGC	0.0812
GAAAAGCA	-0.112
CACCAGAC	-0.0166
AACGGTAG	0.0653
GCACTGGC	-0.121
ATGCTTAC	-0.358
CAAATTTA	0.0732
CATGCGAC	-0.0928

Sequence	PBM E-score
ACTCGTCC	0.0462
GAGCACAA	0.0998
CCGCCGCC	0.244
GCAAGCAA	-0.015
AATTGGAG	-0.07
ATCCTCAG	0.0362
CGCCTCGA	-0.00383
AACAAAGC	0.0302
ATCTTGTG	-0.202
AAGGAAGT	0.0783
CATAACCG	0.135
CCCCGGCC	0.0967
CCACCGCA	0.00962
TACATTCA	-0.161
TACAGACA	-0.0889
CCTTCCGA	0.323
GGTTTTAC	-0.217
TGACGACA	-0.0763
CCCGCGCA	0.288
ACGCAAAA	0.0276
CCCCTACA	-0.222
AGTTTCAT	0.101
GCAGCATA	-0.124
AGTGTCAT	-0.037

Sequence	PBM E-score
AAGATAAA	0.012
GCTTCACC	-0.103
CTCATCAG	0.0537
AGGACCGA	-0.0353
CAGCGTGA	-0.113
AGGATTTA	-0.0298
ATGTTTAG	-0.0411
TCTCCCAA	-0.199
AAGCGGTA	-0.0936
ACGCGAGG	-0.0432
CCTCTATC	-0.0908
AGGTTTGC	-0.129
ACTATGGC	-0.107
GGTGCGCA	0.191
ACAGATGT	-0.0767
GCGCGCGA	0.308
ACTTGGAG	-0.0985
AGTCGACT	0.0493
GACGAAAC	-0.165
ACATTCCC	0.154
AGTGTGGA	-0.0572
ATTCGACG	0.0473
ATACCCAC	0.0633
TATTCAAA	0.00324

Sequence	PBM E-score
AATGGTGC	0.0972
AGGGGGGA	-0.201
ATTCTTCA	-0.101
CACTGGGA	-0.181
TAGTTCCA	0.0392
AATATCTG	0.0304
CTGATGTC	0.169
ACTGAACC	0.00178
AACGGCGA	0.265
GGGCATCA	-0.133
CGGTACAC	0.0159
GACTGATA	-0.093
AGCTCCGC	0.287
ACTAACGC	0.0417
AACAAGAC	0.0408
GAGCGTCC	-0.174
AATGGACG	0.158
AGAGTCGC	-0.0813
ACTCCTAG	-0.216
ATGACACC	-0.216
TCGGAACA	0.483
GGGGCTGA	-0.13
